# Assay results reported in the antibiotic and cytotoxicity screens of Wong et al. (2023).
# Some of the results follow.
# System: HepG2
# Experiment: cytotoxicity call (relative viability < 0.9)
# Conditions: 10 µM
row,Structure (SMILES),cytotoxicity call
1,COc1ccccc1C#Cc1cnc2c(c1)C(=O)N([C@@H](C)CO)C[C@H](C)[C@@H](CN(C)S(=O)(=O)c1cn(C)cn1)O2,inactive
2,Cc1noc(C)c1NC(=O)Nc1ccc2c(c1)C(=O)N([C@H](C)CO)C[C@H](C)[C@@H](CN(C)S(=O)(=O)c1ccc(Cl)cc1)OCCCC[C@@H](C)O2,inactive
3,CSCCC(N)C(=O)O (centres undefined),inactive
4,CC(C)COCC(CN(Cc1ccccc1)c1ccccc1)N1CCCC1.Cl (centres undefined),active
5,CCC(=O)OC1(C(=O)SCF)C(C)CC2C3CC(F)C4=CC(=O)C=CC4(C)C3(F)C(O)CC21C (centres undefined),inactive
6,C[C@H](CO)N1C[C@H](C)[C@H](CN(C)S(=O)(=O)c2ccc3ccccc3c2)OCc2cnnn2CCCC1=O,inactive
7,CC(C)NC(=O)N(C)C[C@H]1OCCCC[C@H](C)Oc2ccc(NC(=O)Nc3ccc(C(F)(F)F)cc3)cc2C(=O)N([C@H](C)CO)C[C@H]1C,inactive
8,COc1ccc(S(=O)(=O)Nc2ccc3c(c2)CC(=O)N([C@@H](C)CO)C[C@H](C)[C@@H](CN(C)Cc2ccc(Oc4ccccc4)cc2)O3)cc1,active
9,Cc1ccc(S(=O)(=O)N(C)C[C@H]2Oc3ccc(NC(=O)C4CC4)cc3CC(=O)N([C@H](C)CO)C[C@@H]2C)cc1,inactive
10,CN1CCN(C(=O)C[C@H]2CC[C@@H]3[C@H](COC[C@@H](O)CN3Cc3ccc4c(c3)OCO4)O2)CC1,inactive
11,C[C@@H]1CN([C@H](C)CO)C(=O)Cc2cc(NC(=O)CCCCCC(=O)Nc3ccccc3N)ccc2O[C@H]1CN(C)C(=O)Nc1ccc(C(F)(F)F)cc1,inactive
12,Nn1c(Cn2ccnc2)nnc1Cn1ccnc1,inactive
13,C=C1c2cccc(O)c2C(=O)[C@@H]2C(=O)[C@]3(O)C(=O)[C@@H](C(N)=O)C(=O)[C@@H](N(C)C)[C@@H]3[C@@H](O)[C@H]12,inactive
14,O=C(CN1CCNCC1)N1CCCC1,inactive
15,Cc1noc(C)c1S(=O)(=O)N(C)C[C@H]1Oc2ccc(NS(=O)(=O)c3cccs3)cc2CC(=O)N([C@@H](C)CO)C[C@@H]1C,inactive
16,Cn1cc(C[C@@H](N)C(=O)O)c2ccccc21,inactive
17,CNC(=S)NCc1ccco1,inactive
18,C=CCOC(=O)[C@@H]1[C@H]2C(=O)O[C@H](c3ccccc3)[C@H](c3ccccc3)N2[C@H](c2ccc(OCCOC(=O)[C@H]3C[C@H]4C(=O)N[C@@H](CC(C)C)C(=O)N4[C@H]3c3ccc(O)cc3)cc2)[C@@]12C(=O)Nc1ccc(I)cc12,inactive
19,C[C@H]1CN([C@@H](C)CO)C(=O)c2cc(NS(=O)(=O)c3cn(C)cn3)ccc2O[C@H]1CN(C)S(C)(=O)=O,inactive
20,Cc1ccc(S(=O)(=O)Nc2ccc3c(c2)C(=O)N([C@@H](C)CO)C[C@H](C)[C@H](CN(C)Cc2ccncc2)OCCCC[C@@H](C)O3)cc1,inactive

row,Structure (SMILES),cytotoxicity call
1,C[C@H]1CCCCO[C@H](CN(C)C(=O)NC2CCCCC2)[C@@H](C)CN([C@@H](C)CO)C(=O)c2cc(NC(=O)CCC(F)(F)F)ccc2O1,inactive
2,COc1ccc(CN(C)C[C@H]2OCCCC[C@@H](C)Oc3ccc(NC(=O)CCC(F)(F)F)cc3C(=O)N([C@H](C)CO)C[C@@H]2C)cc1,inactive
3,COC(=O)C1=CO[C@@H](O[C@@H]2O[C@H](CO)[C@@H](O)[C@H](O)[C@H]2O)[C@@H]2[C@@H](C)[C@@H](OC(=O)/C=C/c3ccc(O)cc3)[C@@H](O)[C@H]12,inactive
4,C[C@H](CO)N1C[C@H](C)[C@H](CN(C)C(=O)c2ccc(F)cc2)OCc2ccccc2-c2c(n(C)c3ccccc23)C1=O,inactive
5,COCC#Cc1ccc2c(c1)O[C@H](CN(C)C(=O)C1CCOCC1)[C@H](C)CN([C@@H](C)CO)S2(=O)=O,inactive
6,C[C@@H]1CCCCO[C@H](CN(C)Cc2ccccc2)[C@@H](C)CN([C@H](C)CO)C(=O)c2cc(NC(=O)Nc3ccc(F)cc3)ccc2O1,inactive
7,C[C@@H]1CCCCO[C@@H](CN(C)C(=O)Nc2ccc3c(c2)OCO3)[C@H](C)CN([C@@H](C)CO)C(=O)c2cc(NS(=O)(=O)c3ccc(Cl)cc3)ccc2O1,inactive
8,C[C@@H]1CN([C@H](C)CO)S(=O)(=O)c2ccc(-c3ccc(C#N)cc3)cc2O[C@H]1CN(C)C(=O)CN(C)C,inactive
9,C[C@H]1CN([C@@H](C)CO)C(=O)Cc2cc(NC(=O)C3CC3)ccc2O[C@H]1CN(C)Cc1ccc(Oc2ccccc2)cc1,inactive
10,C[C@H](CO)N1C[C@H](C)[C@H](CN(C)S(=O)(=O)c2cn(C)cn2)Oc2ncc(Br)cc2C1=O,inactive
11,C[C@@H]1CN([C@H](C)CO)C(=O)c2cc(NC(=O)Nc3ccc(C(F)(F)F)cc3)ccc2O[C@H]1CN(C)C(=O)Nc1ccccc1,inactive
12,C[C@@H]1CCCCO[C@@H](CN(C)C(=O)Nc2ccc3c(c2)OCO3)[C@@H](C)CN([C@@H](C)CO)C(=O)c2cc(NC(=O)Nc3cccc4ccccc34)ccc2O1,inactive
13,C[C@@H]1CCCCO[C@@H](CN(C)C(=O)c2ccccc2)[C@@H](C)CN([C@@H](C)CO)C(=O)c2cc(NC(=O)CCC(F)(F)F)ccc2O1,inactive
14,CCN(CC)c1ccc(N2CC=C[C@@]34O[C@@H]5/C=C\CC[C@H](C)OC(=O)[C@@H]5[C@H]3C(=O)N(CCO)[C@@H]4C2=O)cc1,inactive
15,OCCc1ccccc1,inactive
16,C[C@@H]1CN([C@@H](C)CO)S(=O)(=O)c2ccc(-c3cncnc3)cc2O[C@H]1CN(C)C(=O)CN(C)C,inactive
17,C[C@@H]1CCCCO[C@@H](CN(C)C(=O)Nc2ccc(F)cc2)[C@H](C)CN([C@H](C)CO)C(=O)c2cc(NS(=O)(=O)c3ccccc3)ccc2O1,inactive
18,C[C@@H]1CN([C@@H](C)CO)S(=O)(=O)c2ccc(/C=C/c3ccccc3)cc2O[C@H]1CN(C)C(=O)Nc1cc(F)ccc1F,inactive
19,CC1C2CCC3C4CC=C5CC(N(C)C)CCC5(C)C4CCC32CN1C (centres undefined),active
